Measurements from PubChem BioAssay AID1508624 (National Center for Advancing Translational Sciences (NCATS), 2021).
The campaign covered roughly 48,000 compounds. About 120 (0.25%) were called active. Another 4% or so got no clear call; they are omitted. Calls come from the whole dose curve; as a rule, active = well fitted activation curve with a large enough effect; inconclusive = small, poorly fitted or top-dose-only effect, or another doubt; inactive = no such curve, though single readings can be large or run the other way. The list shows a part of the results.

test: Primary qHTS for Identification of Small Molecule Activators of Huntingtin-Antisense Promoter Activity; conditions: HEK293 HTT-AS promoter firefly luciferase reporter, 24 h; series mostly up to 57.5 µM; activity change, positive = activation: at the top concentration; note: nearly all actives have a fitted effect of over 55% in size
How it was run: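 HEK293 cells carrying firefly luciferase reporters were seeded at 2,500 per well in Opti-MEM and cultured for 24 h. They were then treated with compounds at up to 57.5 uM final for 24 h at 37 degrees C before Dual-Glo luminescence readout.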

Activity change, positive = activation, inactive:
Cc1ccc(N2C(=O)CSC23C(=O)N(CC(=O)Nc2ccccc2F)c2ccccc23)cc1C (configuration not stated) -10.9%
Cc1ccc(CNC(=O)c2ccc(CS(=O)(=O)c3ccccc3C)o2)cc1 -14%
CCOC(=O)CSc1nc2cc3c(cc2c(=O)n1CCCCCC(=O)NCc1ccc(OC)cc1)OCO3 -8.73%
CN(C)c1ccc(CNC(=O)c2ccc3nc(CCc4ccccc4)oc3c2)cc1 21.4%
COc1ccccc1NC(=O)Cn1c(=O)n(-c2ccc(C)cc2)c(=O)c2c1cnn2C -5.25%
COc1ccc(-n2nc(C(=O)Nc3cccc(Cl)c3)c3c4ccccc4n(C)c3c2=O)cc1Cl -4.49%
O=C(Nc1ccc(Br)cc1)c1cccc(S(=O)(=O)N2CCc3ccccc32)c1 -56.8%
CC(C)(C)c1ccc(-c2nnc(-c3ccccc3NC(=O)c3ccc(F)cc3F)o2)cc1 -20.3%
CCOC(=O)c1cccc(NC(=O)c2cnn(-c3ccccc3)c2-n2cccc2)c1 -24.2%
CC(=O)N1c2ccccc2C(=O)C1N1CCN(c2cc(Cl)ccc2C)CC1 (configuration not stated) -33.7%
O=C(CSCc1cc(=O)c2ccccc2[nH]1)Nc1cccc(C(F)(F)F)c1 -15.9%
CC(=O)c1ccc(N2CCN(S(=O)(=O)c3ccc4[nH]c5c(c4c3)CCCCC5)CC2)cc1 -35.5%
CCC1CN(C(=O)Nc2ccccc2C(F)(F)F)c2ccccc2S1 (configuration not stated) 5.23%
CCC1CN(C(=O)N2CCC(C(=O)N(C)Cc3ccccc3)CC2)c2ccccc2O1 (configuration not stated) -27.2%
Cc1ccc(CNC(=O)c2cc(S(=O)(=O)N3CCCCC3)cn2C)cc1 -29%
Cc1ccc2nc(CN3CCN(C(=O)Nc4cccc(C)c4C)CC3)oc2c1 -19%
COc1ccc(NC(=O)CN2C(=O)CC(c3ccco3)Sc3ccccc32)cc1OC (configuration not stated) -25.2%
COC(=O)c1scc(-c2ccc(C)cc2)c1S(=O)(=O)Nc1c(C)cc(C)cc1C -15.2%
Cc1nc2c(-c3ccccc3)c(C)[nH]n2c(=O)c1Cc1ccc(C(C)C)cc1 -42.4%
CCS(=O)(=O)c1ncc(N(Cc2cccc(F)c2)Cc2ccco2)c(C(=O)Nc2ccccc2Cl)n1 -9.35%
Cc1onc(-c2ccccc2Cl)c1C(=O)N[C@@H]1C(=O)N2[C@@H]1SC(C)(C)[C@@H]2C(=O)O
COc1ccc2c(c1)c1c(c(=O)n(Cc3ccccc3)c(=O)n1Cc1ccc(C)cc1)n2C -15%
Cc1ccc(-n2ncc(C(=O)NCCCN3CCc4ccccc4C3)c2C2CCN(C(=O)OC(C)(C)C)CC2)cc1C -25.9%
CC(CNC(=O)CN1C(=O)COc2ccc(S(=O)(=O)N3CCCCC3)cc21)c1ccccc1 (configuration not stated) -16.8%
O=C(Nc1ccc(Cl)cc1)C1CCN(S(=O)(=O)c2ccc(Br)s2)CC1 -43.8%
Cc1ccccc1C(=O)Nc1ccc(C(=O)OCc2cc(=O)n3nc(C4CC4)sc3n2)cc1 -47.3%
CC1CN(C(=O)Nc2ccc(C(=O)NCCc3ccccc3Cl)cc2)c2ccccc2S1 (configuration not stated) 3.75%
COc1ccc(-c2cc(C(F)(F)F)n3nc(C(=O)Nc4sc5c(c4C#N)CCC(C)C5)cc3n2)cc1OC (configuration not stated) 8.24% [at 11.5 µM, percent change from vehicle, -100% = no light]
CCC(C)NC(=O)c1[nH]c2cc(OC)ccc2c1Sc1ccc(C)cc1 (configuration not stated) 5.97%
COc1ccccc1NC(=O)c1sc2nc(-c3cc4ccccc4oc3=O)[nH]c(=O)c2c1C -6.61%
COc1ccc(Cn2ccc3ccc(C(=O)NO)cc32)cc1 -16.3%
Cc1cc(C)cc(NC(=O)c2cccc(N3CCCS3(=O)=O)c2)c1 23.9%
O=C(Cc1ccc(Cl)cc1)NCC(c1cccs1)S(=O)(=O)c1ccc(Cl)cc1 (configuration not stated) -34.1%
Cc1cccc(C(=O)Nc2nnc(SCc3cc(=O)n4cccc(C)c4n3)s2)c1 -3.28%
COc1ccc(C(=O)N/C(=C\c2cn(S(=O)(=O)N(C)C)c3ccccc23)C(=O)NCCCn2ccnc2)cc1 -2.17%
O=C(CSc1nnc(-c2ccccc2F)o1)N1CCc2ccccc21 7.89%
Cc1cccc(NC(=O)c2c(NC(=O)c3ccco3)sc3c2CCC(C(C)(C)C)C3)c1 (configuration not stated) -11.8%
C#Cc1cccc(Nc2ncnc3cc(OCCOC)c(OCCOC)cc23)c1
CN(Cc1ccccc1)C(=O)C1CCN(Cc2cc3ccccc3n2Cc2ccccc2)CC1 -23.9%
CCOc1ccccc1NC(=O)CCNS(=O)(=O)c1ccc2c(c1)CCN2C(=O)C1CC1 -22.4%
Cc1ccc(/C=C/c2onc(C)c2S(=O)(=O)N2CCC(C(=O)NCc3ccc(N(C)C)cc3)CC2)cc1 18.4%
CCCCS(=O)CC(O)CSc1nc(-c2ccc(OC)cc2)cc(-c2ccccc2)c1C#N (configuration not stated) -21.1% [at 11.5 µM, percent change from vehicle, -100% = no light]
COc1ccc(NC(=O)CN(c2ccc(C)cc2)S(=O)(=O)c2cccs2)cc1OC -6.88%
Fc1ccccc1N1CCN(c2c3c(nc4nncn24)CCC3)CC1 -33.9%
CCC(Sc1nnc(-c2ccc(OC)cc2)c(-c2ccc(OC)cc2)n1)C(=O)Nc1cccc(OC)c1 (configuration not stated) -12.7%
Cc1ccc(OCCCC(=O)Nc2sc3c(c2C(N)=O)CCCC3)cc1 13%
Cn1ncc2c(N3CCN(c4ccccc4Cl)CC3)ncnc21 -20.8%
CCCCN(C)C(=O)Cn1ncc2c([nH]c3ccc(C)cc32)c1=O -11.3%
CCC(C(=O)NCc1ccccc1)n1ncn2c(cc3occc32)c1=O (configuration not stated) -7.98%
Cc1cccc(C(=O)Nc2cccc(C(=O)OCc3cc(=O)n4ccsc4n3)c2)c1 20.3%
CCOC(=O)c1ccc2ncc(C(=O)OCC)c(Nc3ccc(C)c(Br)c3)c2c1 -38.4%
COc1ccc(Br)cc1CNC(=O)CN1C(=O)CSc2ccc(S(=O)(=O)N3CCOCC3)cc21 -16.6%
Cc1ccc(NC(=O)c2cc3c(=O)n(Cc4cccnc4)ccc3nc2C)cc1F 6.28%
COc1ccc(OC(C)C(=O)NCc2nc(-c3ccc(Cl)cc3)no2)cc1 (configuration not stated) -32.9%
COc1ccc(NC(=O)CNS(=O)(=O)c2cccs2)c(OC)c1 19.7%
CC(C)Sc1ncc(Cl)c(C(=O)Nc2ccc(S(=O)(=O)N3CCCCC3C)cc2)n1 (configuration not stated) -37.9%
COc1ccc(OC)c(CNC(=O)c2cccc(NC(=O)N3CCSc4ncccc43)c2)c1 -14.6%
